# In the supplement of paper PMC11417369:
# ± gives the standard deviation of the averaged measurements. The list shows a part of the results.
# Test system: PfAP2-EXP AP2 domain (GST-tagged)
# Assay: gcPBM binding intensity (ln(normalized median fluorescence intensity)); higher = stronger DNA binding
# Procedure, shortened: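 An Agilent 4 × 180k array of primer-extended double-stranded 36-bp intergenic genomic probes, with negative controls, was incubated for 1 h with GST-tagged P. falciparum DNA-binding domains expressed in E. coli. Alexa488 anti-GST antibody detected bound protein, scanned at 488 nm. Binding intensity is the highest Masliner-normalised natural-log median intensity across replicate spots of either probe orientation.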
row,Sequence,gcPBM binding intensity (ln)
1,ATATTATTATAATATACATATATATATATAATATAT [CACACA_negctrl_site480],8.19 ± 0.27
2,TATATATATAATTAAAGTACATATAACCACAAAAAT [XGTACX_site7289],9.09 ± 0.4
3,TTATAAATTATAGGTACACACAAAAAAAAAAAGAAA [CACACA_site1327],8.72 ± 0.49
4,ATTTGTTACACTAAATGTACATACATACATATATAT [XGTACX_site6175],8.77 ± 0.33
5,ATAAACATATCAATATGTACATATTTTTGTTTGTAT [XGTACX_site7018],8.46 ± 0.21
6,TTATAATAGTTAAATGTACACACTAACTACATGGAA [CACACA_site9070],8.62 ± 0.32
7,ATTTATCAATAAAATGCACACACTGTAATATTATTA [CACACA_site3976],8.52 ± 0.42
8,AAACCACAAAATTTTTTATATATGACCAATACATAG [CACACA_negctrl_site277],8.54 ± 0.35
9,TTCCATATAATTACATGTACACATTTTGAATAATAT [XGTACX_site3692],8.89 ± 0.33
10,ACAGATATACATAAAAAAAAAATAATTTTACATATA [CACACA_negctrl_site929],8.2 ± 0.42
11,ATATATATGTATGTATGTACATATTTGAATTTATTT [XGTACX_site8470],8.73 ± 0.64
12,AGCACAGACGGACACACACACATATATATATATATA [CACACA_site4341],10.1 ± 0.35
13,TTTGTTTTTTCTTTTTGTACATATACAAGATACGTA [XGTACX_site2309],8.85 ± 0.54
14,ATGTATGTATAATATACACACTCACAAGCATTCAAA [CACACA_site4306],8.43 ± 0.4
15,GTATATATTCATATGGAAAATAAAGGAGAAAACAAG [TGCATGCA_negctrl_site220],9.18 ± 0.44
16,ACCCAACATATGTGTACACAGAAAATAAATATAATA [CACACA_site5901],9.11 ± 0.53
17,GTGTTTTTTTTAGATTGTACATATATATATATATAT [XGTACX_site4562],10.3 ± 0.33
18,TTTTGTAATTCTCTTCATATAATTTATATATATATA [CACACA_negctrl_site1825],9.73 ± 0.18
19,ATGGTAGTGATTAAAAGTACACGTAATTGTAAAAAT [XGTACX_site387],8.79 ± 0.41
20,ATATATATACATACATACCTATGTATATGTGTAATT [GTGCAC_negctrl_site50],8.5
21,TAAACAACTTATAAATGTACACATATTTTAATTACC [XGTACX_site5409],8.46 ± 0.22
22,TAAAAAAAAAAAAATACACACACACCGATATATATA [CACACA_site8498],8.66 ± 0.54

row,Sequence,gcPBM binding intensity (ln)
1,AATAAAAACTAAACATGTACGCACATATATATATAT [XGTACX_site8096],9.97 ± 0.26
2,TAAGTGCATGAGATATGTACATATATAAAATATATA [XGTACX_site3294],8.68 ± 0.33
3,TCATAGTCTTAATGACTACACACCTAACTATGCATG [CACACA_site1839],8.36 ± 0.33
4,ATTTTTTAAAAAGTAACACACACTCTTATAAATAAC [CACACA_site7668],8.62 ± 0.35
5,AAAGTAAAAATATACTGTACAAATTTTTTCCCCTCT [XGTACX_site171],8.48 ± 0.49
6,AAAGAAAGCACATACACACACAAAAAAAAAAAAGAA [CACACA_site776],8.58 ± 0.49
7,GATGCACTTTAAAAATGTACTTATACCTTTAATTGT [XGTACX_site6395],8.38 ± 0.35
8,AAACAAAAAAAAAAAAAAAAAAAAAAAAAAAAAAAA [GTGCAC_negctrl_site254],7.89 ± 0.28
9,ATATTTATATACAAATGTACGCATATAATATATATA [XGTACX_site1232],8.54 ± 0.16
10,AAAAAAATATTATAATATATATATATATATATATAT [GTGCAC_negctrl_site399],10.1 ± 0.28
11,AGAGATTATAAAATATGTACTAAATATTAAATCTTA [XGTACX_site7050],8.17 ± 0.49
12,AGGACTAATATTTGAACACACATATAATATATACAT [CACACA_site3998],8.48 ± 0.5
13,ATAGAATCTGGTAGCTGTACGAGTCGTAGAGTGCAG [XGTACX_site2026],8.91 ± 0.38
14,AATATATACATATATGTACACACATTACAGATGTAC [CACACA_site8227],8.61 ± 0.36
15,TTTTTCTTGAATCGAAGTACTTAGGAGGGGATATTT [XGTACX_site2862],9.28 ± 0.69
16,ACACAATATATATATTGTACATACACATATTTACTA [XGTACX_site1872],8.75 ± 0.18
17,ATAACGACCTAGACGTGTACATACAAAGGAATGAAA [XGTACX_site4870],8.88 ± 0.42
18,CATACACATAGACACACACACATATATACCTATATA [CACACA_site6644],8.65 ± 0.4
19,GAAATGTATATTTTTACATGCAAATAAAATATATAA [TGCATGCA_site439],8.94 ± 0.24
20,GAATATAAACATATTACACACATCTATAGGTACATT [CACACA_site6983],8.54 ± 0.36
21,GTGATTTAATTGTGTTGTACATATTTATAAATAAAA [XGTACX_site8966],8.72 ± 0.36
22,AAAAAAAAAAGAAACACACACATTTGTATTTAATAT [CACACA_site5184],8.31 ± 0.42
